The results in this text go back to patent publication US20230365642A1 (published 2023).

Read-outs that look alike come from different tables or passages of the source.

In assay [1] the target is T1, IL13Rα2 Protein, Human, Recombinant, His Tag (human, UniProt Q14627 27-343).
T1 chain: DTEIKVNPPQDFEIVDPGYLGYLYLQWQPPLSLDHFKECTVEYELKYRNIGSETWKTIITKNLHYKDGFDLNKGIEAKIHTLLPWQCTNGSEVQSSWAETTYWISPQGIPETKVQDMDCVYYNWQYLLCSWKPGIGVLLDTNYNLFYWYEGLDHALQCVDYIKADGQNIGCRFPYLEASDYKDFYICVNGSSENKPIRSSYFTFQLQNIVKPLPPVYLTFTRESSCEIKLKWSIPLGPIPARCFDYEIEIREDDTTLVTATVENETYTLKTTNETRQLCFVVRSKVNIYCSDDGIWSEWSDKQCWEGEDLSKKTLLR
The assay is described as follows: SPR.

The target in assay [2] is T2, IL2R beta (CD122) (UniProt P14784 27-239).
T2 chain: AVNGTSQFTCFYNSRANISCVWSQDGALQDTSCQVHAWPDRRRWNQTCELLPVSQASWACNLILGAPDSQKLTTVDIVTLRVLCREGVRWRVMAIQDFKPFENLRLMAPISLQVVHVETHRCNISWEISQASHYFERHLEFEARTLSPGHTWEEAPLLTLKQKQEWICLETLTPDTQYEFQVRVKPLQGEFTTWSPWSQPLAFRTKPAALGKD
The assay is described as follows: BLI.

For assay [3], the target named is T2, IL2R beta (CD122). The assay can be described thus: BLI Octet.
The target in assay [4] is T1, IL13Rα2 Protein, Human, Recombinant, …. The assay is described as follows: ELISA.
Assay [5] has as its target T3, IL13Rα2 Protein, Mouse, Recombinant, His Tag (mouse, UniProt O88786 22-334).
T3 chain: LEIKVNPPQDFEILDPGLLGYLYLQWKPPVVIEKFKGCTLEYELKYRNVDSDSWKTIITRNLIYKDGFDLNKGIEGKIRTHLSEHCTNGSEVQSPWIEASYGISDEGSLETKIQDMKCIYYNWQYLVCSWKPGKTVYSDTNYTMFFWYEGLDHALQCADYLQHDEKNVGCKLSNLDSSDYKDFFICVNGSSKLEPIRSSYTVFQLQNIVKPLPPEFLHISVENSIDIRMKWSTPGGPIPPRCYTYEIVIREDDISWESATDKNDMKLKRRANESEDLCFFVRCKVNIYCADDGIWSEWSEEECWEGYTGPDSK
The assay is described as follows: ELISA.

The target in assay [6] is T4, IL13Rα Protein, Human, Recombinant, His Tag (human IL13Rα1) (human, UniProt P78552 22-343).
T4 chain: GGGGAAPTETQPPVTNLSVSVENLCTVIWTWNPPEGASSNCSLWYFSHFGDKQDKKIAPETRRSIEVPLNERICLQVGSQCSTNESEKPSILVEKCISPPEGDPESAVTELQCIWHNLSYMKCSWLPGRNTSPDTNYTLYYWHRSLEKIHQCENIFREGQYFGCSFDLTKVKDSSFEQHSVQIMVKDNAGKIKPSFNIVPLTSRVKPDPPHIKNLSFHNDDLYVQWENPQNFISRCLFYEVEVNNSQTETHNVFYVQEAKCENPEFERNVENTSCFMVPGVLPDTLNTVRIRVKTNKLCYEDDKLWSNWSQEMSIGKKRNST
The assay is described as follows: SPR.

The target of assay [7] is T1, IL13Rα2 Protein, Human, Recombinant, …. The assay is described as follows: SPR.
For assay [8], the target named is T4, IL13Rα Protein, Human, Recombinant, His …. The assay can be described thus: SPR.

B1: Fc-MDNA413 (1:2) (Fc fusion)
chain: [human IgG1 Fc with changes not listed]GGGSGGGGSGGGGSPGPVPPSTAVRALIEELINITQNQKAPLCNGSMVWSINRTAGMYCAALESLINVSGCSAIEKTQDMLSGFCPHKVSAGQFSSLHVRSSKIEVAQFVKDLLFHLRTLFREGQFN
As for B1, the Kd in assay [1] worked out at 30 nM.

B2: MDNA11 (3rd Gen.) (protein)
chain: MYRMQLLSCIALSLALVTNSAPTSSSTKKTQLQLEHLLLDLQMILNGINNYKNPKLTRMLTAKFYMPKKATELKHLQCLEEALKPLEEVLNLAQSKNFHFDPRDVVSNINVFVLELKGSETTFMCEYADETATIVEFLNRWITFSQSIISTLTGGGGSGGGGSGGGGS[about 600 residues not listed]
In the case of B2, binding with IL2R beta (CD122) [2] was put at a Kd of 6.6 nM.

B3: MDNA11 (protein)
chain: MYRMQLLSCIALSLALVTNSAPTSSSTKKTQLQLEHLLLDLQMILNGINNYKNPKLTRMLTAKFYMPKKATELKHLQCLEEALKPLEEVLNLAQSKNFHFDPRDVVSNINVFVLELKGSETTFMCEYADETATIVEFLNRWITFSQSIISTLTGGGGSGGGGSGGGGS[about 600 residues not listed]
In the assay with IL2R beta (CD122) [3], B3 returned a Kd of 6.6 nM.

B4: Human recombinant Fc-IL13 (Control) (Fc fusion)
chain: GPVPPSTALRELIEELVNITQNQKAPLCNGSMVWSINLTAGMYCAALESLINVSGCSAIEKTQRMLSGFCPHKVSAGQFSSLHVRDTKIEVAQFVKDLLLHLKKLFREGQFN
As to B4, the EC50 turned out to be 0.73 nM in assay [4] and 1.92 nM in assay [5]. Besides, the Kd in assay [6] stood at 263 nM; in assay [7] it was 0.69 nM; in assay [8], 263 nM; in assay [1], 0.69 nM.
